From patent US20100221257A1 (AstraZeneca / MedImmune, published 2010)

Key:
[1] = biological target: T1, human histidine tagged (HIS) IL1RFc fusion protein (human); assay: HTRF receptor-ligand assay, inhibiting HIS FLAG IL-1β binding to human HIS IL1RFc
T1 construct: Biotinylated or cryptate labelled in some assays; also called human HIS IL1RFc; huIL-1R1-Fc

[2] = biological target: T2, human IL-1R1, endogenous on human cells (HeLa cells; whole blood) (human, UniProt P14778 18-569); assay: cell-based or functional assay
T2 sequence (looked up): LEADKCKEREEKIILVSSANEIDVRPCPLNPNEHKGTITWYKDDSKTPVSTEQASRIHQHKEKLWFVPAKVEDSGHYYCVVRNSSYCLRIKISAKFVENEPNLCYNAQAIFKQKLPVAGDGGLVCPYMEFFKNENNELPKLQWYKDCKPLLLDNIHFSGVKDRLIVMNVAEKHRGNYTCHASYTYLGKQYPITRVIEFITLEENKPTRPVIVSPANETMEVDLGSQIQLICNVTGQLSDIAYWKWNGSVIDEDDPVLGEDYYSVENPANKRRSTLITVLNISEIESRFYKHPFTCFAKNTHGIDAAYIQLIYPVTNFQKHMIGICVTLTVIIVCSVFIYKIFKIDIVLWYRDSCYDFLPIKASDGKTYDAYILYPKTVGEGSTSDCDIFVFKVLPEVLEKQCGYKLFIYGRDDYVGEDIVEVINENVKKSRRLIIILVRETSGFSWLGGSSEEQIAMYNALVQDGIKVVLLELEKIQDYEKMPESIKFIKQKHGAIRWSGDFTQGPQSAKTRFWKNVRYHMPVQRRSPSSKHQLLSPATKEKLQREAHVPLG

[3] = biological target: T3, cynomolgus IL-1R1, endogenous on CYNOM-K1 cells (cynomolgus monkey, UniProt A0A7N9CMI5 18-569); assay: cell-based or functional assay
T3 sequence: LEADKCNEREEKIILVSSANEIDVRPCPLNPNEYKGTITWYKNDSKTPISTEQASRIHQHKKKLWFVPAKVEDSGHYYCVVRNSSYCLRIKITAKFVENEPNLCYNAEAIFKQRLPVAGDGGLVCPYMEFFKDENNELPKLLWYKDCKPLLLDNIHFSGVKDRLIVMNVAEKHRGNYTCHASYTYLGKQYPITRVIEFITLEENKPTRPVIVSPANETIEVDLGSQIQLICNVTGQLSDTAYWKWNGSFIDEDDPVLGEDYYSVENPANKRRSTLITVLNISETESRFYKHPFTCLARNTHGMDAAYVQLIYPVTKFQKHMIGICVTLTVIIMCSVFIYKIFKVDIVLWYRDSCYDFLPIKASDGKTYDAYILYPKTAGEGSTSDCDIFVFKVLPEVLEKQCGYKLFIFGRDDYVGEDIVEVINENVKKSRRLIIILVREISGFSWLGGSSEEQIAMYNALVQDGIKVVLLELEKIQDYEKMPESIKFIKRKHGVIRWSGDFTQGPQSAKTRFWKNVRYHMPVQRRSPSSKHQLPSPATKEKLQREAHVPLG

[4] = biological target: T1, human histidine tagged (HIS) IL1RFc …; assay: HTRF receptor-ligand assay, inhibiting HIS FLAG IL-1Ra binding to cryptate labelled human HIS IL1RFc
[5] = biological target: T2, human IL-1R1, endogenous on human cells …; assay: cell-based or functional assay; remark: listed apart in the source

B1: Kineret (anakinra), recombinant nonglycosylated human IL-1Ra (ligand)
chain: not shown
notes: mature; Bought from a pharmacy outlet; also called IL-1 receptor antagonist
- IC50 [1]: 0.323 nM
- IC50, inhibition of human IL-1β induced IL-8 release from HeLa cells [2]: 0.01 nM
- IC50, inhibition of IL-1β induced IL-8 release from CYNOM-K1 cells, experiment 1 [3]: 0.2 nM
- IC50, inhibition of IL-1β induced IL-8 release from CYNOM-K1 cells, experiment 2 [3]: 0.8 nM
- IC50 [4]: 0.323 nM
- IC50, inhibition of IL-1 alpha induced IL-8 release in HeLa cells (N = 3) [5]: 0.0017 nM
- IC50, inhibition of IL-1 beta induced IL-8 release in HeLa cells (run with the GL IgG2 set, N = 5-6) [5]: 0.002 nM
- IC50, inhibition of IL-1 beta induced IL-8 release in HeLa cells (run with the IgG1 set, N = 6-7) [5]: 0.0062 nM
